# Legend:
# H446 = test: Anti-Ly6H antibodies binding to endogenous cell lines by flow cytometry: H446; design: species or system human; key: (−): No binding; (+): Weak binding; (++): Moderate binding; (+++): Strong binding; (++++): Very strong binding; conditions: primary antibodies 1 ug/ml, live cells on ice 30 minutes
# Description: (§1) Staining for flow cytometry was performed in 1× cold PBS with 0.5% BSA. Primary antibodies (1 ug/ml) were incubated with live cells on ice for 30 minutes, after a brief wash, cells were incubated with Alexa Fluro® 488-conjugated anti-human IgG secondary antibody @1:1000 (709-546-149, Jackson ImmunoResearch). Acquisition of the data was performed on a MACSQuant© Flow Cytometers (Miltenyi Biotec) and analyzed with FlowJo software.
# (§2) Fully human antibodies against LY6H were generated by hybridoma procedures. Briefly, H2L2 mice were immunized with either recombinant human Ly6H-ECD or BaF3 cells over-expressing LY6H and boosted with rabbit splenocytes expressing full length human LY6H or with ECD of LY6H recombinant protein. Splenocytes were fused with the mouse myeloma cell line X63-Ag8.653. Clones from H2L2 mice were identified by immunofluorescence (IF) based high content screening (HCS) on 293 cells overexpressing hLY6H, ratLy6H, and parental 293 cells not expressing LY6H, as well as endogenous small cell lung cancer (SCLC) cell line, H446. […] 270 hits were cryopreserved and stored in liquid nitrogen. Approximately 100 clones were selected for molecular cloning. Based on unique CDR3 sequences from the heavy chain variable domain, 10 antibodies from 8 families were chosen and confirmed by flow cytometry (MACSQuant® miltenybiotec.com) on the following cell lines. […]
# EOL1 = test: Anti-Ly6H antibodies binding to endogenous cell lines by flow cytometry: EOL1; design: species or system human; key: (−): No binding; (+): Weak binding; (++): Moderate binding; (+++): Strong binding; (++++): Very strong binding; conditions: primary antibodies 1 ug/ml, live cells on ice 30 minutes
# Description: as §1, §2
molecule,measurement,setting,value
"23F3_19B2: human anti-LY6H antibody, VH SEQ ID NO: 17, VL SEQ ID NO: 20 (antibody, V domains shown) VH: QVQLQESGPGLVKPSGTLSLTCAVSGGSISSSNWWSWVRQPPGKGLEWIGEIYHSGSTNYNPSLKSRVTISVDKSKNQFSLKLSSVTAADTAVYYCARVDILTGGNFDYWGQGTLVTVSS VL: [about 100 residues not given here]","binding by flow cytometry, H446",H446,(++++)
same,"binding by flow cytometry, EOL1",EOL1,(−)
